Test results taken from publication PMC7494997 (2020).

Tests used:
Human PSGL-1-Fc = biological target: T1, Human PSGL-1-Fc (human, UniProt Q14242 42-320); experiment: ELISA
T1 chain: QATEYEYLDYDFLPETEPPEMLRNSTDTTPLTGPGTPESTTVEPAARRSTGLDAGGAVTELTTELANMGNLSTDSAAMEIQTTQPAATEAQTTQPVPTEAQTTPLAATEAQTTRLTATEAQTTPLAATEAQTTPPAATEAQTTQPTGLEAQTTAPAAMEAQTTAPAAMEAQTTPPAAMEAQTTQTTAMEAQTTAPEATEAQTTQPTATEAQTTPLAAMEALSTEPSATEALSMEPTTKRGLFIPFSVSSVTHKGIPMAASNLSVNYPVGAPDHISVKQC

hVISTA-Fc = hVISTA-Fc (human, biotin (EZ-Link NHS Ester) in the competition ELISA (#3) and in the T cell binding assay); experiment: FACS; apparent, yeast-displayed scFv
Sequence of hVISTA-Fc (chain, as listed by the source): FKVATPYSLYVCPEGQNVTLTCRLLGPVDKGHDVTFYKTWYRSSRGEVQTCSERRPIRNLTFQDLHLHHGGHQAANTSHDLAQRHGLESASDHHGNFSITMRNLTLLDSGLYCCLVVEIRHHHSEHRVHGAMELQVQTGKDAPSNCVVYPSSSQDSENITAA

cyno VISTA-Fc = biological target: T2, cyno VISTA-Fc (cynomolgus monkey); experiment: FACS; apparent, yeast-displayed scFv
T2 chain: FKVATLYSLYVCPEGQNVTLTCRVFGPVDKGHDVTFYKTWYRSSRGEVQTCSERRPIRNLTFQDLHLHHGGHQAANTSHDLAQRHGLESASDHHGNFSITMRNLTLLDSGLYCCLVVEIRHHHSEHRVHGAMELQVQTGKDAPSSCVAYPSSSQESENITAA

hVSIG3-Fc = biological target: T3, hVSIG3-Fc (human, UniProt Q5DX21 23-241); experiment: ELISA
T3 chain: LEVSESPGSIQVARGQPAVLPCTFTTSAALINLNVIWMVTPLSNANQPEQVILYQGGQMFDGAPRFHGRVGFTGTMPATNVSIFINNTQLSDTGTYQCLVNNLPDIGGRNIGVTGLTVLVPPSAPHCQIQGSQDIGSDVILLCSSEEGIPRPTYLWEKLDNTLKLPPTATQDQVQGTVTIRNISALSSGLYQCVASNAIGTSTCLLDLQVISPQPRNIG

B1: soluble hVISTA-Fc E125A (Fc fusion)
chain: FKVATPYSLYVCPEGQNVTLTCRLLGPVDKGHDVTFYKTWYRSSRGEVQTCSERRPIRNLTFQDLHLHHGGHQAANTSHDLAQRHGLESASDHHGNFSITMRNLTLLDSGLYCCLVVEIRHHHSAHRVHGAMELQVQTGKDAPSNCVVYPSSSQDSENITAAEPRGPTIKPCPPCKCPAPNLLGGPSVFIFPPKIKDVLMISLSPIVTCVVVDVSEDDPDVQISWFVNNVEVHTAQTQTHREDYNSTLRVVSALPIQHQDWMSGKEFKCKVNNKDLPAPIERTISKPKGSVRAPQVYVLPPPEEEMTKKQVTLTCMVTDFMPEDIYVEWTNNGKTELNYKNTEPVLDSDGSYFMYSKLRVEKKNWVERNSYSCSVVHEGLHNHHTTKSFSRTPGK
B1 showed a Kd (Human PSGL-1-Fc) of 1.5 nM.

B2: Clone V9.7 (scFv)
scFv: [about 100 residues skipped]GGGTKVEIKGTTAASGSSGGSSSGAQVQLVQSGAEVKKPGSSVKVSCKASGGIFSSYAISWVRQAPGQGLEWMGGIIPIFGTANYAQKFQGRVTITADESTSTAYMELSSLRSEDTAVYYCARPVRSGPDYLQHWGQGTLVTVSS
For B2, the Kd (hVISTA-Fc) was 0.24 nM and the Kd (cyno VISTA-Fc) was 0.36 nM.

B3: soluble hVISTA-Fc F62A (Fc fusion)
chain: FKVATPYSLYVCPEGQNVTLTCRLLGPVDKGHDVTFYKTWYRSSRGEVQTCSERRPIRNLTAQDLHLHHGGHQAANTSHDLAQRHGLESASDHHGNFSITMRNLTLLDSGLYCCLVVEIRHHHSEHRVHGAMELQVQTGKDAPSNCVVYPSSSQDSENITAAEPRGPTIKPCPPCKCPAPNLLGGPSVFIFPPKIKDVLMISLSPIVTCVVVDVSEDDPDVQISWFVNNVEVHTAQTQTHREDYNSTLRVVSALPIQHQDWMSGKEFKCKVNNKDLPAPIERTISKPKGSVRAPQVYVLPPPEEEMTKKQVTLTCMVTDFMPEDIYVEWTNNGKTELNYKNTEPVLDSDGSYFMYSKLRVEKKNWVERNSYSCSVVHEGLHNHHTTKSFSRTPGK
B3 showed a Kd (hVSIG3-Fc) of 14 nM.
